The source of these data is the antibiotic and cytotoxicity screens of Wong et al. (2023).

The other results are listed elsewhere or left out.

The test system of test [1] is HSkMC (human skeletal muscle cells). Description: cytotoxicity call (relative viability < 0.9). Conditions: 10 µM.
Test [2] concerns HepG2. Description: cytotoxicity call (relative viability < 0.9). Conditions: 10 µM.
The test system of test [3] is S. aureus RN4220. The test can be described thus: growth inhibition call (relative growth <= 0.2). Conditions: 50 µM.

Turning to `CN(C)c1nc(SCCO)nc(N(C)C)n1`, the cytotoxicity call in test [1] and in test [2] was “inactive” in each case. Besides, in test [3], the growth inhibition call was “inactive”.
As to `C=CCN1C(=O)[C@@]2(O[C@@H](CCO)[C@H]([Si](C)(C)c3ccc(OC)cc3)[C@H]2C)c2cc(N3C(=O)c4cccc5cccc3c45)ccc21`, the cytotoxicity call in test [1] and in test [2] was “active” in each case. In test [3], the growth inhibition call was “inactive”.
On to `C[C@@H]1CN([C@@H](C)CO)S(=O)(=O)c2ccc(C#CC3(O)CCCC3)cc2O[C@H]1CN(C)C(=O)c1cccnc1`, for which the cytotoxicity call in test [1] and in test [2] was “inactive” in each case. For the same compound, in test [3], the growth inhibition call was “inactive”.
On to `CO[C@@H]1CN(C)C(=O)c2ccc(NC(=O)Nc3ccccc3)cc2OC[C@H](C)N(C(=O)CN(C)C)C[C@H]1C`, for which the cytotoxicity call in test [1] and in test [2] was “inactive” in each case. In test [3], the growth inhibition call was “inactive”.
Take `Cc1ccc(S(=O)(=O)N(C)C[C@@H]2OCCCC[C@@H](C)Oc3ccc(NC(=O)Nc4ccc(C(F)(F)F)cc4)cc3C(=O)N([C@@H](C)CO)C[C@H]2C)cc1`: the cytotoxicity call in test [1] was “inactive”. Also, the cytotoxicity call in test [2] is “active”. In test [3], the growth inhibition call is “inactive”.
As to `COc1ccc(NC(=O)Nc2cccc3c2O[C@H](CN(C)CC2CCCCC2)[C@H](C)CN([C@@H](C)CO)C3=O)cc1`, the cytotoxicity call in test [1] and in test [2] was “inactive” in each case. Moreover, the growth inhibition call in test [3] was “inactive”.
Turning to `CNC(=O)C[C@@H]1CC[C@H]2[C@@H](COC[C@H](O)CN2C(=O)Nc2cccc(OC)c2)O1`, the cytotoxicity call in test [1] and in test [2] was “inactive” in each case. In addition, the growth inhibition call in test [3] was “inactive”.
As to `CNC[C@H]1Oc2ccc(NS(=O)(=O)c3cn(C)cn3)cc2CC(=O)N([C@@H](C)CO)C[C@@H]1C`, the cytotoxicity call in test [1] and in test [2] was “inactive” each time. The growth inhibition call in test [3] was “inactive”.
Turning to `COc1ccccc1C#Cc1ccc2c(c1)O[C@@H](CN(C)Cc1cccnc1)[C@H](C)CN([C@H](C)CO)S2(=O)=O`, the cytotoxicity call in test [1] and in test [2] was “active” each time. Besides, the growth inhibition call in test [3] is “inactive”.
For `Cc1noc(C)c1S(=O)(=O)N(C)C[C@H]1Oc2ccc(NC(=O)Cn3cnnn3)cc2CC(=O)N([C@@H](C)CO)C[C@H]1C`, the cytotoxicity call in test [1] and in test [2] was “inactive” throughout. Further, the growth inhibition call in test [3] is “inactive”.
As to `O=C(Cc1ccsc1)N(Cc1ccc2c(c1)OCO2)Cc1cc2cc3c(cc2nc1N1CCOCC1)CCC3`, the cytotoxicity call in test [1] and in test [2] was “inactive” throughout. The growth inhibition call in test [3] was “inactive”.
On to `C[C@@H]1CN([C@@H](C)CO)C(=O)c2cc(NC(=O)Nc3ccc(C(F)(F)F)cc3)ccc2O[C@@H](C)CCCCO[C@@H]1CN(C)Cc1ccc2c(c1)OCO2`, for which the cytotoxicity call in test [1] and in test [2] was “inactive” throughout. Besides, the growth inhibition call in test [3] was “inactive”.
In the case of `C[C@H](CO)N1C[C@H](C)[C@@H](CN(C)C(=O)NC2CCCCC2)OCCCC[C@H](C)Oc2ccc(NC(=O)Cc3ccccc3)cc2C1=O`, the cytotoxicity call in test [1] and in test [2] was “inactive” each time. In addition, the growth inhibition call in test [3] is “inactive”.
Consider `O=C(C[C@H]1C[C@H]2c3cc(NC(=O)C4CCOCC4)ccc3O[C@H]2[C@H](CO)O1)NCc1ccc(Cl)cc1`, for which the cytotoxicity call in test [1] and in test [2] was “inactive” in each case. Moreover, the growth inhibition call in test [3] was “inactive”.
For `C[C@@H]1CCCCO[C@H](CN(C)Cc2ccc(Cl)c(Cl)c2)[C@@H](C)CN([C@@H](C)CO)C(=O)c2cc(NC(=O)NC3CCCCC3)ccc2O1`, in test [1], the cytotoxicity call was “active”. Further, the cytotoxicity call in test [2] is “inactive”. Besides, the growth inhibition call in test [3] is “inactive”.
With `C[C@@H]1CCCCO[C@H](CN(C)Cc2ccc(C(=O)O)cc2)[C@@H](C)CN([C@@H](C)CO)C(=O)c2cc(NC(=O)C3CCCCC3)ccc2O1`, the cytotoxicity call in test [1] and in test [2] was “inactive” throughout. Also, the growth inhibition call in test [3] was “inactive”.
Consider `C[C@H]1CN([C@@H](C)CO)S(=O)(=O)c2ccc(C#Cc3ccc(F)cc3)cc2O[C@H]1CN(C)CC1CC1`, for which the cytotoxicity call in test [1] and in test [2] was “inactive” each time. Besides, in test [3], the growth inhibition call is “inactive”.
As for `COc1cc(C=O)ccc1O`, in test [1], the cytotoxicity call was “inactive”. For the same compound, the cytotoxicity call in test [2] is “active”. Moreover, the growth inhibition call in test [3] was “inactive”.
On to `O=C(C[C@@H]1CC[C@H]2[C@@H](COC[C@H](O)CN2S(=O)(=O)c2ccccc2)O1)N[C@@H]1CCN(Cc2ccccc2)C1`, for which the cytotoxicity call in test [1] and in test [2] was “inactive” each time. Besides, in test [3], the growth inhibition call is “inactive”.
`C[C@H](CO)N1C[C@H](C)[C@@H](CN(C)S(=O)(=O)c2ccc(F)cc2)Oc2c(NC(=O)c3ccncc3)cccc2C1=O`: the cytotoxicity call in test [1] and in test [2] was “inactive” in each case. Further, in test [3], the growth inhibition call is “inactive”.
For the compound `COC(=O)[C@@H](Cc1ccccc1)N[C@H](/C=C/C1CC1)[C@@H](O)CCn1cc(-c2cccc(/C=C/C(=O)NO)c2)nn1`, the cytotoxicity call in test [1] and in test [2] was “inactive” in each case. In addition, the growth inhibition call in test [3] is “inactive”.
As to `Cc1noc(C)c1NC(=O)Nc1ccc2c(c1)CC(=O)N([C@H](C)CO)C[C@@H](C)[C@H](CN(C)C(=O)Nc1ccc(C(F)(F)F)cc1)O2`, the cytotoxicity call in test [1] and in test [2] was “inactive” throughout. Further, the growth inhibition call in test [3] is “inactive”.
For the compound `COc1ccccc1NC(=O)N(C)C[C@H]1Oc2ncc(Br)cc2C(=O)N([C@@H](C)CO)C[C@@H]1C`, the cytotoxicity call in test [1] and in test [2] was “inactive” each time. In addition, the growth inhibition call in test [3] is “inactive”.
In the case of `C[C@H](CO)N1C[C@H](C)[C@H](CN(C)S(=O)(=O)c2ccccc2)Oc2ncc(-c3ccccc3)cc2C1=O`, the cytotoxicity call in test [1] and in test [2] was “inactive” throughout. Moreover, the growth inhibition call in test [3] is “inactive”.
For the compound `CO[C@H]1CN(C)C(=O)c2ccc(NS(=O)(=O)c3cn(C)cn3)cc2OC[C@H](C)N(CC2CC2)C[C@@H]1C`, the cytotoxicity call in test [1] and in test [2] was “inactive” throughout. Further, the growth inhibition call in test [3] is “inactive”.
With `C[C@H]1CCCCO[C@H](CN(C)S(=O)(=O)c2ccc(F)cc2)[C@@H](C)CN([C@@H](C)CO)C(=O)c2cc(NS(C)(=O)=O)ccc2O1`, the cytotoxicity call in test [1] and in test [2] was “inactive” each time. Moreover, the growth inhibition call in test [3] was “inactive”.
Take `O=C(C[C@H]1C[C@@H]2c3cc(NC(=O)C4CCOCC4)ccc3O[C@@H]2[C@@H](CO)O1)NCCN1CCCCC1`: the cytotoxicity call in test [1] and in test [2] was “inactive” throughout. The growth inhibition call in test [3] was “inactive”.
